Results from the supplement of paper PMC4604168 (melanoma cell lines).
This is one part of the list. Most values come without repeats; read them as rough.

What was measured:
Assay in all cases: cell count relative to DMSO control; melanoma cells; higher = more viable cells
Settings in all cases: library dose: low library concentration; 72 h
MZ2-MEL = tested on: MZ2-MEL
MeWo = tested on: MeWo
RPMI7951 = tested on: RPMI7951
RVH-421 = tested on: RVH-421
SkMel28 = tested on: SkMel28
SkMel2 = tested on: SkMel2
SkMel30 = tested on: SkMel30
SkMel5 = tested on: SkMel5
UACC257 = tested on: UACC257
UACC62 = tested on: UACC62
WM115 = tested on: WM115
WM1716 = tested on: WM1716
WM1745 = tested on: WM1745
WM3526 = tested on: WM3526
WM3619 = tested on: WM3619
WM451Lu = tested on: WM451Lu
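Also: cell number obtained by counting DAPI-stained nuclei in high-throughput microscope images with image analysis software, screen run in 1,536-well plates.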

Compound	cell count (MZ2-MEL)	cell count (MeWo)	cell count (RPMI7951)	cell count (RVH-421)	cell count (SkMel28)	cell count (SkMel2)	cell count (SkMel30)	cell count (SkMel5)	cell count (UACC257)	cell count (UACC62)	cell count (WM115)	cell count (WM1716)	cell count (WM1745)	cell count (WM3526)	cell count (WM3619)	cell count (WM451Lu)
Nc1ccn([C@@H]2O[C@H](CO)[C@@H](O)C2(F)F)c(=O)n1 [gemcitabine] + C=CCn1c(=O)c2cnc(Nc3ccc(N4CCN(C)CC4)cc3)nc2n1-c1cccc(C(C)(C)O)n1 [MK1775] (first compound 0.0004 µM, partner dose 0.02 µM)	90.7%	95.1%	91.8%	92.5%	91.9%	82.3%	80.5%	75.7%	86.8%	74.7%	87.8%	78%	37.6%	98.1%	59.4%	85.3%
CC(=O)O[C@@]12CO[C@@H]1C[C@H](O)[C@@]1(C)C(=O)[C@H](O)C3=C(C)[C@@H](OC(=O)[C@H](O)[C@@H](NC(=O)OC(C)(C)C)c4ccccc4)C[C@@](O)([C@@H](OC(=O)c4ccccc4)[C@H]21)C3(C)C [Docetaxel] + O=C(CCCCCCC(=O)Nc1ccccc1)NO [vorinostat] (first compound 0.0001 µM, partner dose 0.08 µM)	43.7%	34.8%	36.5%	57.4%	37.9%	36%	29.9%	91.2%	35.9%	38.6%	62.8%	27%	54.2%	45.2%	79.7%	45.7%
CC(=O)c1c(C)c2cnc(Nc3ccc(N4CCNCC4)cn3)nc2n(C2CCCC2)c1=O [palbociclib] + c1cc(-c2cnn3cc(-c4ccc(OCCN5CCCCC5)cc4)cnc23)ccn1 [Dorsomorphin] (first compound 0.04 µM, partner dose 0.4 µM)	93.7%	96.2%	77.3%	92.9%	75.2%	97.9%	71.5%	74.2%	48.9%	70.3%	76.2%	69.4%	77.3%	62.7%	89.8%	61.6%
Nc1ccn([C@@H]2O[C@H](CO)[C@@H](O)C2(F)F)c(=O)n1 [gemcitabine] + NC(=O)Nc1cc(-c2cccc(F)c2)sc1C(=O)N[C@H]1CCCNC1 [AZD7762] (first compound 0.0004 µM, partner dose 0.02 µM)	99.4%	86.1%	74.3%	123%	87.4%	102%	122%	92.2%	111%	77.6%	83.1%	73.7%	49.5%	86.1%	30%	85.3%
Nc1nc(F)nc2c1ncn2[C@@H]1O[C@H](CO)[C@@H](O)[C@@H]1O [fludarabine] + COc1cc2c(Oc3ccc4[nH]c(C)cc4c3F)ncnc2cc1OCCCN1CCCC1 [cediranib] (first compound 0.2 µM, partner dose 0.4 µM)	98.5%	32.9%	86%	84.7%	75.1%	4.63%	16.5%	51.6%	118%	78.1%	102%	106%	95.7%	32.4%	111%	61.7%
CC(=O)c1c(C)c2cnc(Nc3ccc(N4CCNCC4)cn3)nc2n(C2CCCC2)c1=O [palbociclib] + C[C@]1(c2nc3c(C(N)=O)cccc3[nH]2)CCCN1 [Veliparib] (first compound 0.04 µM, partner dose 1.4 µM)	87.7%	74.9%	67.3%	65.7%	73.4%	83.3%	74.9%	–	–	64.6%	69.2%	62.4%	85.2%	48.1%	70.4%	82.6%
CC(=O)c1c(C)c2cnc(Nc3ccc(N4CCNCC4)cn3)nc2n(C2CCCC2)c1=O [palbociclib] + OCc1c[nH]c2ccccc12 [Indole-3-carbinol] (first compound 0.04 µM, partner dose 0.8 µM)	89.3%	84.3%	87%	71.5%	76.4%	83.6%	83.8%	–	–	86.2%	84.2%	84.9%	92.1%	74.2%	67.5%	76.2%
Nc1ccn([C@@H]2O[C@H](CO)[C@@H](O)C2(F)F)c(=O)n1 [gemcitabine] + COc1cc(Nc2ncc(F)c(Nc3ccc4c(n3)NC(=O)C(C)(C)O4)n2)cc(OC)c1OC [Tamatinib] (first compound 0.0004 µM, partner dose 0.4 µM)	84.8%	90.8%	79.3%	114%	81.5%	100%	93.2%	94.6%	90.4%	81.2%	85%	103%	59.5%	82.6%	91.7%	99%
Nc1ncn([C@H]2C[C@H](O)[C@@H](CO)O2)c(=O)n1 [decitabine] + Cn1c(Nc2ccc(C(F)(F)F)cc2)nc2cc(Oc3ccnc(-c4ncc(C(F)(F)F)[nH]4)c3)ccc21 [CHIR265] (first compound 0.1 µM, partner dose 0.08 µM)	64.6%	73.2%	48.5%	64.8%	51.8%	85.1%	50.7%	–	–	46.9%	60.6%	57.8%	74.5%	47.2%	80.9%	85.9%
Nc1nc(F)nc2c1ncn2[C@@H]1O[C@H](CO)[C@@H](O)[C@@H]1O [fludarabine] + O=C(Nc1ccccc1)c1cc([N+](=O)[O-])ccc1Cl [GW9662] (first compound 0.2 µM, partner dose 2 µM)	110%	34.1%	83%	124%	72%	8.48%	17%	75.1%	89.2%	71.7%	107%	106%	109%	25.3%	111%	46.4%
CC(=O)O[C@@]12CO[C@@H]1C[C@H](O)[C@@]1(C)C(=O)[C@H](O)C3=C(C)[C@@H](OC(=O)[C@H](O)[C@@H](NC(=O)OC(C)(C)C)c4ccccc4)C[C@@](O)([C@@H](OC(=O)c4ccccc4)[C@H]21)C3(C)C [Docetaxel] + O=C(Nc1cccc(Cl)c1)Nc1ncc(CCNc2ncnc3ccsc23)s1 [SNS314] (first compound 0.0001 µM, partner dose 0.0008 µM)	47%	49.7%	43.3%	63.3%	50.8%	47.5%	33.6%	69%	37.1%	54.2%	47.5%	32.6%	43.4%	47.3%	67.4%	61.7%
Nc1nc(F)nc2c1ncn2[C@@H]1O[C@H](CO)[C@@H](O)[C@@H]1O [fludarabine] + C[C@@H]1CCN(C(=O)CC#N)C[C@@H]1N(C)c1ncnc2[nH]ccc12 [CP690550] (first compound 0.2 µM, partner dose 1 µM)	97.5%	37.2%	97.9%	117%	74.9%	5.47%	18.4%	52.7%	96.7%	88.7%	89%	91%	100%	25.8%	97%	45.1%
CC(=O)O[C@@]12CO[C@@H]1C[C@H](O)[C@@]1(C)C(=O)[C@H](O)C3=C(C)[C@@H](OC(=O)[C@H](O)[C@@H](NC(=O)OC(C)(C)C)c4ccccc4)C[C@@](O)([C@@H](OC(=O)c4ccccc4)[C@H]21)C3(C)C [Docetaxel] + COc1ccc2c(c1)CCC1C2CCC2(C)C(NCCCCCCN3C(=O)C=CC3=O)CCC12 [U73122] (first compound 0.0001 µM, partner dose 0.4 µM)	44.1%	41.8%	33.8%	69.4%	37.9%	34.9%	34.8%	75.7%	55.7%	38.3%	53.3%	32.2%	39%	34.7%	50.5%	50.3%
Nc1ncn([C@H]2C[C@H](O)[C@@H](CO)O2)c(=O)n1 [decitabine] + Cn1cc(/C=C2\C(=O)Nc3cccnc32)c2ccccc21 [GW441756] (first compound 0.1 µM, partner dose 0.4 µM)	83.3%	110%	70.3%	72.7%	83.7%	109%	93.7%	77.9%	86%	61.1%	84.3%	77.9%	88.5%	107%	102%	95.8%
Nc1ncn([C@H]2C[C@H](O)[C@@H](CO)O2)c(=O)n1 [decitabine] + C[C@@H]1CCN(C(=O)CC#N)C[C@@H]1N(C)c1ncnc2[nH]ccc12 [CP690550] (first compound 0.1 µM, partner dose 1 µM)	82.2%	97.7%	80.6%	85.7%	94.3%	97.2%	109%	90.6%	75%	70.8%	88.3%	81.7%	84.6%	108%	93.7%	106%
CC(=O)O[C@@]12CO[C@@H]1C[C@H](O)[C@@]1(C)C(=O)[C@H](O)C3=C(C)[C@@H](OC(=O)[C@H](O)[C@@H](NC(=O)OC(C)(C)C)c4ccccc4)C[C@@](O)([C@@H](OC(=O)c4ccccc4)[C@H]21)C3(C)C [Docetaxel] + Cc1nc(Nc2ncc(C(=O)Nc3c(C)cccc3Cl)s2)cc(N2CCN(CCO)CC2)n1 [dasatanib] (first compound 0.0001 µM, partner dose 0.004 µM)	38%	46.4%	26.8%	57.4%	42.6%	36.8%	37.4%	–	–	47.2%	57.8%	32.5%	41%	46.3%	65.6%	62.1%
Nc1ncn([C@H]2C[C@H](O)[C@@H](CO)O2)c(=O)n1 [decitabine] + Cn1nnc2c(C(N)=O)ncn2c1=O [temozolomide] (first compound 0.1 µM, partner dose 2 µM)	88.2%	94.8%	76.7%	92%	87.9%	97.2%	103%	–	–	66.7%	90.7%	90.1%	123%	126%	66.9%	95.3%
CC(=O)O[C@@]12CO[C@@H]1C[C@H](O)[C@@]1(C)C(=O)[C@H](O)C3=C(C)[C@@H](OC(=O)[C@H](O)[C@@H](NC(=O)OC(C)(C)C)c4ccccc4)C[C@@](O)([C@@H](OC(=O)c4ccccc4)[C@H]21)C3(C)C [Docetaxel] + C[C@@H](Oc1cc(-c2cnn(C3CCNCC3)c2)cnc1N)c1c(Cl)ccc(F)c1Cl [Crizotinib] (first compound 0.0001 µM, partner dose 0.2 µM)	41.7%	54.5%	43.3%	56.9%	24.9%	41.4%	36%	–	–	52.4%	55.9%	47.5%	66.1%	45.2%	60.7%	46.3%
